Assays:
Type in all cases: cell-based
[1] = system: H. influenza Hi3 ATCC 31517; conditions: H. influenza Hi3 ATCC 31517, sensitive strain
[2] = system: H. influenza Hi10 clinical strain; conditions: sensitive
[3] = system: H. influenza Hi106 ATCC 51907; conditions: H. influenza Hi106 ATCC 51907, sensitive strain

8-O-4-Bromo-5-Chloro-1H-pyrrole-2′-carbonylbranimycin [Compound 35]
>64 µg/mL: MIC Hi3 [1] | MIC Hi10 [2] | MIC Hi106 [3]
